For test [1], the target named is ICP27 of wild type HSV-1 strain KOS, in infected cells (HSV-1 strain KOS) (UniProt P10238). As to the kind of experiment: co-IP; RSF cells transfected with GFP control, GFP-Hsc70 or GFP-Hsc70K71M, 24 h later infected with WT HSV-1 for 8 h; immunoprecipitation with anti-ICP27 antibody, blot probed with anti-GFP and anti-Hsc70 antibodies.
A further test addresses GST-Hsc70 (540-650) (UniProt P19120). As to the kind of experiment: pull-down; 10 µl Glutathione-Sepharose-bound GST-Hsc70 proteins with 10 µl in vitro translation reaction of 35S-methionine labeled ICP27, room temperature, beads washed four times, SDS-PAGE; only the target purified.
The target of a further test is GST-Hsc70 (1-540) (UniProt P19120). Described as above.
For a further test, the target named is GST-Hsc70 (373-650) (UniProt P19120). The test is described as above.
Another test deals with GST-Hsc70 (373-540) (UniProt P19120). The description is as above.
Test [2] deals with ICP27 of wild type HSV-1 strain KOS, in infected cells (HSV-1 strain KOS) (UniProt P10238). As to the kind of experiment: co-IP; HeLa cells infected with WT or ICP27 mutant HSV-1 (moi 10), nuclear extracts at 6 h; immunoprecipitation with anti-ICP27 monoclonal antibody, Western blot with anti-Hsc70 antibody.

The chains behind the UniProt entries cited, without tags or fusion partners. Where a name states a change or a piece, a line headed by the entry shows the natural chain unless it says otherwise. Residues count along the entry.
GST-Hsc70 (1-540) (P19120, residues 1-540): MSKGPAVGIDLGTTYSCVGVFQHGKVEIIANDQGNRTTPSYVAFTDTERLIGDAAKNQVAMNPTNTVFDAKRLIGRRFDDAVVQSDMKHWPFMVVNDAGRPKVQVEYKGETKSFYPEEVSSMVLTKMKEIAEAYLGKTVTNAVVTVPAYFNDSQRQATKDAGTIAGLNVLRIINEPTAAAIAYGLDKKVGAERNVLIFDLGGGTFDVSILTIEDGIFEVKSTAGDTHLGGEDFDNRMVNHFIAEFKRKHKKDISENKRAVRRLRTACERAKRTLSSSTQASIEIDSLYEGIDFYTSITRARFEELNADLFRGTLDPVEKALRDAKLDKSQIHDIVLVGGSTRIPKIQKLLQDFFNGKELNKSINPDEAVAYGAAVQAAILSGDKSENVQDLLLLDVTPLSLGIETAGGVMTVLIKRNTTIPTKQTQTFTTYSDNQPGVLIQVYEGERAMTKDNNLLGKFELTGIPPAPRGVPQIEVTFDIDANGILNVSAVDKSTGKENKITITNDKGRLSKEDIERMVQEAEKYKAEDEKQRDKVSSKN
GST-Hsc70 (373-650) (P19120, residues 373-650): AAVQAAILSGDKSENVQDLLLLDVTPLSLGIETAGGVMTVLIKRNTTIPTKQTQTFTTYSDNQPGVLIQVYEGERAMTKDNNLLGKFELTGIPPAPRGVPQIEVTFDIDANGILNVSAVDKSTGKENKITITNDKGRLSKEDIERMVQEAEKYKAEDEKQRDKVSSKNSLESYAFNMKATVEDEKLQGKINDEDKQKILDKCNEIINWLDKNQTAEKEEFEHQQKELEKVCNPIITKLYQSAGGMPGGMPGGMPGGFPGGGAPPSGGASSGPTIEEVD
GST-Hsc70 (373-540) (P19120, residues 373-540): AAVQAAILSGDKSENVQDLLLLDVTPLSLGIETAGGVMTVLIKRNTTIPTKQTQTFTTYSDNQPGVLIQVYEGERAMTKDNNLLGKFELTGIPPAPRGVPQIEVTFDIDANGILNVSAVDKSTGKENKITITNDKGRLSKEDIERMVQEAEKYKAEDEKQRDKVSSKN
GST-Hsc70 (540-650) (P19120, residues 540-650): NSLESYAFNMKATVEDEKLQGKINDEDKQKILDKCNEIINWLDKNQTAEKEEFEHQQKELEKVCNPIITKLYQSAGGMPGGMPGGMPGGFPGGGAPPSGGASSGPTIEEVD
UniProt P11142: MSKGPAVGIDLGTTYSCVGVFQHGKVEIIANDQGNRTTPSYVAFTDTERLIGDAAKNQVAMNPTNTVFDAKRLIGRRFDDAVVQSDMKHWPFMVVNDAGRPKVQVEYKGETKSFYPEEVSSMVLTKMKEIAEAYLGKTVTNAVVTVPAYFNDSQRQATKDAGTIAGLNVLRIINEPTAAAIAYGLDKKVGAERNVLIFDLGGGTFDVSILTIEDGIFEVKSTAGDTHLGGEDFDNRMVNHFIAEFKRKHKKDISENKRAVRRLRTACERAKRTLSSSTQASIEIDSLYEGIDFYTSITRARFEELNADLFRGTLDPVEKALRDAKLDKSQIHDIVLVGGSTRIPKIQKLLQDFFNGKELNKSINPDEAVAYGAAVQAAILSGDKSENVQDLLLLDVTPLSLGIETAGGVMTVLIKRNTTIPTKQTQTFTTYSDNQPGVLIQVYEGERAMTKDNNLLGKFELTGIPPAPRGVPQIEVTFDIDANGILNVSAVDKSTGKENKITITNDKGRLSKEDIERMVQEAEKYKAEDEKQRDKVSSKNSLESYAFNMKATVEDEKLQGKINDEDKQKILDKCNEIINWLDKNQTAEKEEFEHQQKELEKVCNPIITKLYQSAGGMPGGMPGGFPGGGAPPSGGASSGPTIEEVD

Results are given in words; binding and its absence hold for the method and conditions named. In cells and extracts the contact can be indirect. Some entries that bind do so weakly or less than the wild type.

As for “GFP-tagged Hsc70 (from UniProt P11142 1-646)”, the binding result in test [1] is “binds”.
For the substance “wild type ICP27, in vitro translated (from UniProt P10238 1-512)”, the binding entry in the test with GST-Hsc70 (540-650) is given as “no binding”; with GST-Hsc70 (1-540) it was “binds”; with GST-Hsc70 (373-650), “no binding”; with GST-Hsc70 (373-540), “no binding”.
For “endogenous Hsc70 of HeLa cells (from UniProt P11142 1-646)”, in test [2], the binding result was “binds”.
For the substance “ICP27 deletion mutant ΔC, in vitro translated (from UniProt P10238 1-449) (domain or fragment)”, the binding result with GST-Hsc70 (1-540) was “no binding”.
On to “GFP-tagged Hsc70 K71M (from UniProt P11142 1-646)”, for which, in test [1], the binding result is recorded as “no binding”.

The values are drawn from article PMC2200795.
